Measured values published in the supplement of paper PMC8728848.
This is one part of the list.

Columns and labels:
Assay in all cases: glycan array binding signal (z-score within array); higher = stronger binding
Details in all cases: glycan notation: IUPAC condensed, linker removed
[1] = molecular target: Gal(b1-4)GlcNAc(b1-2)[Gal(b1-4)GlcNAc(b1-6)]Man(a1-6)[GlcNAc(b1-4)][Gal(b1-4)GlcNAc(b1-2)Man(a1-3)]Man(b1-4)GlcNAc(b1-4)GlcNAc
Summary of the method: (§1)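 Glycan array data were curated from 3228 arrays in the Consortium for Functional Glycomics database and kept only where the protein sequence was available. Glycan names were converted to IUPAC-condensed notation, and columns mapping to the same glycan were averaged. The binding signal is a within-array Z-score, averaged across arrays of the same protein sequence at different concentrations or buffers and across linkers. Negative Z-scores can be read as non-binding.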

[2] = molecular target: Gal(b1-4)GlcNAc(b1-2)[Gal(b1-4)GlcNAc(b1-6)]Man(a1-6)[GlcNAc(b1-4)][Gal(b1-4)GlcNAc(b1-2)[Gal(b1-4)GlcNAc(b1-4)]Man(a1-3)]Man(b1-4)GlcNAc(b1-4)[Fuc(a1-6)]GlcNAc
Summary of the method: as §1

[3] = molecular target: Gal(b1-4)GlcNAc(b1-3)Gal(b1-3)GalNAc
Summary of the method: as §1

[4] = molecular target: Gal(b1-4)GlcNAc(b1-3)Gal(b1-3)GlcNAc
Summary of the method: as §1

[5] = molecular target: Gal(b1-4)GlcNAc(b1-3)Gal(b1-4)Glc
Summary of the method: as §1

[6] = molecular target: Gal(b1-4)GlcNAc(b1-3)Gal(b1-4)GlcNAc
Summary of the method: as §1

[7] = molecular target: Gal(b1-4)GlcNAc(b1-3)Gal(b1-4)GlcNAc(b1-2)Man(a1-3)[Gal(b1-4)GlcNAc(b1-3)Gal(b1-4)GlcNAc(b1-2)Man(a1-6)]Man(b1-4)GlcNAc(b1-4)GlcNAc
Summary of the method: as §1

[8] = molecular target: Gal(b1-4)GlcNAc(b1-3)Gal(b1-4)GlcNAc(b1-2)Man(a1-3)[Gal(b1-4)GlcNAc(b1-3)Gal(b1-4)GlcNAc(b1-2)Man(a1-6)]Man(b1-4)GlcNAc(b1-4)[Fuc(a1-6)]GlcNAc
Summary of the method: as §1

[9] = molecular target: Gal(b1-4)GlcNAc(b1-3)Gal(b1-4)GlcNAc(b1-2)[Gal(b1-4)GlcNAc(b1-3)Gal(b1-4)GlcNAc(b1-6)]Man(a1-6)[Gal(b1-4)GlcNAc(b1-3)Gal(b1-4)GlcNAc(b1-2)Man(a1-3)]Man(b1-4)GlcNAc(b1-4)GlcNAc
Summary of the method: as §1

[10] = molecular target: Gal(b1-4)GlcNAc(b1-3)Gal(b1-4)GlcNAc(b1-2)[Gal(b1-4)GlcNAc(b1-3)Gal(b1-4)GlcNAc(b1-6)]Man(a1-6)[Gal(b1-4)GlcNAc(b1-3)Gal(b1-4)GlcNAc(b1-2)Man(a1-3)]Man(b1-4)GlcNAc(b1-4)[Fuc(a1-6)]GlcNAc
Summary of the method: as §1

[11] = molecular target: Gal(b1-4)GlcNAc(b1-3)Gal(b1-4)GlcNAc(b1-3)Gal(b1-4)GlcNAc
Summary of the method: as §1

[12] = molecular target: Gal(b1-4)GlcNAc(b1-3)Gal(b1-4)GlcNAc(b1-3)Gal(b1-4)GlcNAc(b1-2)Man(a1-3)[Gal(b1-4)GlcNAc(b1-3)Gal(b1-4)GlcNAc(b1-3)Gal(b1-4)GlcNAc(b1-2)Man(a1-6)]Man(b1-4)GlcNAc(b1-4)GlcNAc
Summary of the method: as §1

[13] = molecular target: Gal(b1-4)GlcNAc(b1-3)Gal(b1-4)GlcNAc(b1-3)Gal(b1-4)GlcNAc(b1-2)Man(a1-3)[Gal(b1-4)GlcNAc(b1-3)Gal(b1-4)GlcNAc(b1-3)Gal(b1-4)GlcNAc(b1-2)Man(a1-6)]Man(b1-4)GlcNAc(b1-4)[Fuc(a1-6)]GlcNAc
Summary of the method: as §1

[14] = molecular target: Gal(b1-4)GlcNAc(b1-3)Gal(b1-4)GlcNAc(b1-3)Gal(b1-4)GlcNAc(b1-2)[Gal(b1-4)GlcNAc(b1-3)Gal(b1-4)GlcNAc(b1-3)Gal(b1-4)GlcNAc(b1-6)]Man(a1-6)[Gal(b1-4)GlcNAc(b1-3)Gal(b1-4)GlcNAc(b1-3)Gal(b1-4)GlcNAc(b1-2)Man(a1-3)]Man(b1-4)GlcNAc(b1-4)[Fuc(a1-6)]GlcNAc
Summary of the method: as §1

[15] = molecular target: Gal(b1-4)GlcNAc(b1-3)Gal(b1-4)GlcNAc(b1-3)Gal(b1-4)GlcNAc(b1-3)Gal(b1-4)GlcNAc(b1-2)Man(a1-3)[Gal(b1-4)GlcNAc(b1-3)Gal(b1-4)GlcNAc(b1-3)Gal(b1-4)GlcNAc(b1-3)Gal(b1-4)GlcNAc(b1-2)Man(a1-6)]Man(b1-4)GlcNAc(b1-4)GlcNAc
Summary of the method: as §1

[16] = molecular target: Gal(b1-4)GlcNAc(b1-3)Gal(b1-4)GlcNAc(b1-3)Gal(b1-4)GlcNAc(b1-3)Gal(b1-4)GlcNAc(b1-2)Man(a1-3)[Gal(b1-4)GlcNAc(b1-3)Gal(b1-4)GlcNAc(b1-3)Gal(b1-4)GlcNAc(b1-3)Gal(b1-4)GlcNAc(b1-2)Man(a1-6)]Man(b1-4)GlcNAc(b1-4)[Fuc(a1-6)]GlcNAc
Summary of the method: as §1

[17] = molecular target: Gal(b1-4)GlcNAc(b1-3)Gal(b1-4)GlcNAc(b1-3)Gal(b1-4)GlcNAc(b1-3)Gal(b1-4)GlcNAc(b1-2)[Gal(b1-4)GlcNAc(b1-3)Gal(b1-4)GlcNAc(b1-3)Gal(b1-4)GlcNAc(b1-3)Gal(b1-4)GlcNAc(b1-6)]Man(a1-6)[Gal(b1-4)GlcNAc(b1-3)Gal(b1-4)GlcNAc(b1-3)Gal(b1-4)GlcNAc(b1-3)Gal(b1-4)GlcNAc(b1-2)Man(a1-3)]Man(b1-4)GlcNAc(b1-4)[Fuc(a1-6)]GlcNAc
Summary of the method: as §1

[18] = molecular target: Gal(b1-4)GlcNAc(b1-3)Gal(b1-4)GlcNAc(b1-3)Gal(b1-4)GlcNAc(b1-3)Gal(b1-4)GlcNAc(b1-3)Gal(b1-4)GlcNAc(b1-2)Man(a1-3)[Gal(b1-4)GlcNAc(b1-3)Gal(b1-4)GlcNAc(b1-3)Gal(b1-4)GlcNAc(b1-3)Gal(b1-4)GlcNAc(b1-3)Gal(b1-4)GlcNAc(b1-2)Man(a1-6)]Man(b1-4)GlcNAc(b1-4)GlcNAc
Summary of the method: as §1

[19] = molecular target: Gal(b1-4)GlcNAc(b1-3)Gal(b1-4)GlcNAc(b1-3)Gal(b1-4)GlcNAc(b1-3)Gal(b1-4)GlcNAc(b1-3)Gal(b1-4)GlcNAc(b1-2)Man(a1-3)[Gal(b1-4)GlcNAc(b1-3)Gal(b1-4)GlcNAc(b1-3)Gal(b1-4)GlcNAc(b1-3)Gal(b1-4)GlcNAc(b1-3)Gal(b1-4)GlcNAc(b1-2)Man(a1-6)]Man(b1-4)GlcNAc(b1-4)[Fuc(a1-6)]GlcNAc
Summary of the method: as §1

[20] = molecular target: Gal(b1-4)GlcNAc(b1-3)Gal(b1-4)GlcNAc(b1-3)Gal(b1-4)GlcNAc(b1-3)Gal(b1-4)GlcNAc(b1-3)Gal(b1-4)GlcNAc(b1-2)[Gal(b1-4)GlcNAc(b1-3)Gal(b1-4)GlcNAc(b1-3)Gal(b1-4)GlcNAc(b1-3)Gal(b1-4)GlcNAc(b1-3)Gal(b1-4)GlcNAc(b1-6)]Man(a1-6)[Gal(b1-4)GlcNAc(b1-3)Gal(b1-4)GlcNAc(b1-3)Gal(b1-4)GlcNAc(b1-3)Gal(b1-4)GlcNAc(b1-3)Gal(b1-4)GlcNAc(b1-2)Man(a1-3)]Man(b1-4)GlcNAc(b1-4)[Fuc(a1-6)]GlcNAc
Summary of the method: as §1

[21] = molecular target: Gal(b1-4)GlcNAc(b1-3)Gal(b1-4)GlcNAc(b1-3)Gal(b1-4)GlcNAc(b1-3)Gal(b1-4)GlcNAc(b1-3)Gal(b1-4)GlcNAc(b1-3)Gal(b1-4)GlcNAc(b1-2)Man(a1-3)[Gal(b1-4)GlcNAc(b1-3)Gal(b1-4)GlcNAc(b1-3)Gal(b1-4)GlcNAc(b1-3)Gal(b1-4)GlcNAc(b1-3)Gal(b1-4)GlcNAc(b1-3)Gal(b1-4)GlcNAc(b1-2)Man(a1-6)]Man(b1-4)GlcNAc(b1-4)GlcNAc
Summary of the method: as §1

[22] = molecular target: Gal(b1-4)GlcNAc(b1-3)Gal(b1-4)GlcNAc(b1-3)GalNAc
Summary of the method: as §1

[23] = molecular target: Gal(b1-4)GlcNAc(b1-3)Gal(b1-4)GlcNAc(b1-3)[Gal(b1-4)GlcNAc(b1-3)Gal(b1-4)GlcNAc(b1-6)]GalNAc
Summary of the method: as §1

[24] = molecular target: Gal(b1-4)GlcNAc(b1-3)Gal(b1-4)GlcNAc(b1-6)[Gal(b1-3)]GalNAc
Summary of the method: as §1

[25] = molecular target: Gal(b1-4)GlcNAc(b1-3)Gal(b1-4)[Fuc(a1-3)]GlcNAc(b1-3)Gal(b1-4)[Fuc(a1-3)]GlcNAc
Summary of the method: as §1

[26] = molecular target: Gal(b1-4)GlcNAc(b1-3)GalNAc
Summary of the method: as §1

[27] = molecular target: Gal(b1-4)GlcNAc(b1-3)[Fuc(a1-3)GlcNAc(b1-6)]Gal(b1-4)Glc
Summary of the method: as §1

[28] = molecular target: Gal(b1-4)GlcNAc(b1-3)[Gal(b1-4)GlcNAc(b1-6)]Gal(b1-4)GlcNAc
Summary of the method: as §1

[29] = molecular target: Gal(b1-4)GlcNAc(b1-3)[GlcNAc(b1-6)]Gal(b1-4)GlcNAc
Summary of the method: as §1

[30] = molecular target: Gal(b1-4)GlcNAc(b1-6)Gal(b1-4)GlcNAc
Summary of the method: as §1

[31] = molecular target: Gal(b1-4)GlcNAc(b1-6)GalNAc
Summary of the method: as §1

[32] = molecular target: Gal(b1-4)GlcNAc(b1-6)[Gal(b1-3)]GalNAc
Summary of the method: as §1

[33] = molecular target: Gal(b1-4)GlcNAc(b1-6)[Gal(b1-4)GlcNAc(b1-3)]GalNAc
Summary of the method: as §1

Gal(b1-4)GlcNAc6P = molecular target: Gal(b1-4)GlcNAc6P
Summary of the method: as §1

Gal(b1-6)Gal = molecular target: Gal(b1-6)Gal
Summary of the method: as §1

Gal3S(b1-3)GalNAc = molecular target: Gal3S(b1-3)GalNAc
Summary of the method: as §1

Gal3S(b1-3)GlcNAc = molecular target: Gal3S(b1-3)GlcNAc
Summary of the method: as §1

[34] = molecular target: Gal3S(b1-3)[Fuc(a1-4)]GlcNAc
Summary of the method: as §1

B1: Cohesin-mDCIR (Macaca mulatta) (protein)
chain: GLDDLDAVRIKVDTVNAKPGDTVRIPVRFSGIPSKGIANCDFVYSYDPNVLEIIEIEPGDIIVDPNPDKSFDTAVYPDRKIIVFLFAEDSGTGAYAITKDGVFATIVAKVKEGAPNGLSVIKFVEVGGFANNDLVEQKTQFFDGGVNVGDTTEPATPTTPVTTPTTTDDLDAASFQKYSQLLEKMTTKDLVHTTLECVKKNMTTEETAWSCCPKNWKPFSSNCYFISTESASWQKSEKDCARMEAHLLVINTREEQDFIFQNLQEESAYFVGLSDPEGQRHWQWVDRTPYNESSTFWHPHEPSDPDERCVVLNFRKTPKRWGWNDVHCIVHQRSVCEMMKIHLHHHHHH
glycan array binding signal (z-score) [1]: -0.439
glycan array binding signal (z-score) [2]: -0.425
glycan array binding signal (z-score) [3]: -0.443
glycan array binding signal (z-score) [4]: -0.404
glycan array binding signal (z-score) [5]: -0.311
glycan array binding signal (z-score) [6]: -0.251
glycan array binding signal (z-score) [7]: 4.39
glycan array binding signal (z-score) [8]: -0.21
glycan array binding signal (z-score) [9]: 0.916
glycan array binding signal (z-score) [10]: -0.136
glycan array binding signal (z-score) [11]: -0.346
glycan array binding signal (z-score) [12]: -0.081
glycan array binding signal (z-score) [13]: 0.022
glycan array binding signal (z-score) [14]: 0.012
glycan array binding signal (z-score) [15]: -0.061
glycan array binding signal (z-score) [16]: 0.53
glycan array binding signal (z-score) [17]: 0.971
glycan array binding signal (z-score) [18]: 0.152
glycan array binding signal (z-score) [19]: 0.068
glycan array binding signal (z-score) [20]: 0.462
glycan array binding signal (z-score) [21]: -0.273
glycan array binding signal (z-score) [22]: -0.296
glycan array binding signal (z-score) [23]: -0.117
glycan array binding signal (z-score) [24]: 0.082
glycan array binding signal (z-score) [25]: -0.37
glycan array binding signal (z-score) [26]: -0.411
glycan array binding signal (z-score) [27]: -0.134
glycan array binding signal (z-score) [28]: -0.43
glycan array binding signal (z-score) [29]: -0.163
glycan array binding signal (z-score) [30]: 0.023
glycan array binding signal (z-score) [31]: 0.647
glycan array binding signal (z-score) [32]: -0.356
glycan array binding signal (z-score) [33]: -0.399
glycan array binding signal (z-score) (Gal(b1-4)GlcNAc6P): -0.459
glycan array binding signal (z-score) (Gal(b1-6)Gal): -0.36
glycan array binding signal (z-score) (Gal3S(b1-3)GalNAc): 1.42
glycan array binding signal (z-score) (Gal3S(b1-3)GlcNAc): 0.354
glycan array binding signal (z-score) [34]: 0.116
